Several values for one entry are separate records, joined by “and”; a condition that tells them apart may be missing. Equal entries are not always repeated. The campaign covered roughly 390,000 compounds. About 17,000 (4.4%) were called active. The shares of active, inactive and inconclusive entries below differ from those in the screen. Calls follow the shape of the dose curve; as a rule, active = well fitted inhibition curve with a large enough effect; inconclusive = small, poorly fitted or top-dose-only effect; inactive = no such curve, though single readings can be large or run the other way. A potency beside an inconclusive call is a rough fit, not a confirmed value. A structure can be active in one record and inactive in another.
What follows are compounds tested against Lysine-specific demethylase 4A (Homo sapiens) (UniProt O75164) (assay: qHTS Assay for Inhibitors of JMJD2A-Tudor Domain). Conditions: AlphaScreen JMJD2A-Tudor / H3K4me3 peptide binding; series mostly up to 114 µM.
Also: nearly all actives have a fitted effect of over 50% in size.
Potency is read from the fitted curve at half-maximal effect; tags tell the direction and shape of the fitted curve.

UniProt O75164, sequence (O75164 whole entry, looked up, the tested form may be a part): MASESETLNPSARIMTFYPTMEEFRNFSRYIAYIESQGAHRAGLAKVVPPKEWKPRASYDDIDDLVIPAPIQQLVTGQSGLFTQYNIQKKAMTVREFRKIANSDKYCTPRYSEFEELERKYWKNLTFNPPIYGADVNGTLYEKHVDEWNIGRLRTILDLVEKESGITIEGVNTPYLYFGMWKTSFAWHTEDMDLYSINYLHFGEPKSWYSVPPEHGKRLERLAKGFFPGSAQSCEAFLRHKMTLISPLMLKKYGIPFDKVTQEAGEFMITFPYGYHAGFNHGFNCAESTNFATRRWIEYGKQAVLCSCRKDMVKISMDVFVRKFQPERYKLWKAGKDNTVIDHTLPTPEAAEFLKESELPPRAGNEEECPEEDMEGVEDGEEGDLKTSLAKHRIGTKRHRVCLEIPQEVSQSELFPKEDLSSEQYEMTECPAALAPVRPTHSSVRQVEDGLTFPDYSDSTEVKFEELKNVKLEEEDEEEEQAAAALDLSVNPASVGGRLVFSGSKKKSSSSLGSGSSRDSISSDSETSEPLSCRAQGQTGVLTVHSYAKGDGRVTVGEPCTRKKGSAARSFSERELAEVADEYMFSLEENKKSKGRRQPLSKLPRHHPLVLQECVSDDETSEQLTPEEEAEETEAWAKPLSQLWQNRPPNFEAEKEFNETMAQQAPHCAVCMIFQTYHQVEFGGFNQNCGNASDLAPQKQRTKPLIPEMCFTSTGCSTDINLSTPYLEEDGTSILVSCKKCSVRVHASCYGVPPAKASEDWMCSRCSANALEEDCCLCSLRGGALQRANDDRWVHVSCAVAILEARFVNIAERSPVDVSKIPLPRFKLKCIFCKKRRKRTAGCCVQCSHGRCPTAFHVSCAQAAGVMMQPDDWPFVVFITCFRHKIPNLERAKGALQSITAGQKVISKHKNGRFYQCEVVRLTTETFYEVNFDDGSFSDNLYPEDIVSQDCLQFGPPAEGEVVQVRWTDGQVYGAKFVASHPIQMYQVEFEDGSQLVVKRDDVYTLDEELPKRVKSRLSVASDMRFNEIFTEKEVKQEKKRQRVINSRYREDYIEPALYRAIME

SMILES	Potency
CCOc1ccc(C2C(C#N)=C(N)N(c3sc4c(c3C#N)CCCC4)C3=C2C(=O)CCC3)cc1 (configuration not stated)	inactive
CC(C)CC(=O)Nc1ccc(C(=O)OCc2cc(=O)n3nc(C(C)C)sc3n2)cc1	inactive
CCOC(=O)c1cc(-c2ccc(C)cc2)n(CCC(=O)N2CCN(c3ccccn3)CC2)c1C	active: 35.5 µM
Cc1ccc(-c2csc(NC(=O)c3ccc(C)o3)n2)cc1	inactive
O=C(NN1CCOCC1)c1cccc2ccccc12	active: 50.1 µM
CC(Oc1ccccc1)C(=O)Nc1oc(-c2ccco2)c(-c2ccco2)c1C#N (configuration not stated)	inconclusive: 35.5 µM [inhibitor, partial curve]
O=C(Nc1ncccc1O)c1ccc2c(c1)OCCO2	active: 25.1 µM
Cn1nc(-c2ccc(Cl)cc2)c2cc(C(=O)NC3CC3)sc21	inconclusive: 15.8 µM [inhibitor, full curve, poor fit]
COc1ccc(Cl)cc1NC(=O)C/C(C)=N/NC(=O)CC#N	inconclusive: 79.4 µM [inhibitor, partial curve]
Nc1ccccc1SC(C[N+](=O)[O-])c1ccccc1 (configuration not stated)	active: 6.31 µM
Cc1ccc(C2=C(c3ccc([N+](=O)[O-])cc3)C(=O)OC2)cc1C	inconclusive: 50.1 µM [inhibitor, partial curve]
O=C(O)CCCN=CC1=C(O)CNC1=O	active: 22.4 µM
CCn1c(CC(=O)Nc2ccc(C)cc2)n[nH]c1=S	active: 3.55 µM
C=CCc1ccc(OCCCNC2CCCC2)c(OC)c1	active: 79.4 µM
COc1ccccc1N1CCN(C(c2ccc(N(C)C)cc2)c2nnnn2CCc2ccccc2)CC1 (configuration not stated)	inconclusive: 25.1 µM [inhibitor, full curve]
O=C(CSc1nnc(COc2ccccc2)o1)NCCc1ccccc1	active: 3.16 µM
CC(C)C[C@@H](CNCC(=O)[C@H](CC(C)C)NC(=O)c1[nH]cnc1C(=O)N[C@@H](C)CN)NC(=O)c1nc[nH]c1C(=O)N[C@@H](CC(=O)O)C(=O)O	active: 50.1 µM
COc1cc(OC)c(C(=O)Nc2ncn[nH]2)cc1OC	active: 50.1 µM
CCCCNC(=O)CCn1c(=O)c2ccccc2n(Cc2ccccc2C#N)c1=O	inactive
Cc1ccc(-c2c(C)cc3oc(=O)cc(-c4ccccc4)c3c2C)cc1	inactive
S=C1SCN(Cc2ccccn2)CN1Cc1ccco1	active: 6.31 µM
O=C(Cc1cccc([N+](=O)[O-])c1)NCc1nc2cccnc2n1Cc1ccc(F)cc1	inactive
CCN(CC)CCNC(=O)c1ccc(NC(=O)Nc2cccc3ccccc23)cc1	inactive
CCOC(=O)c1c(N)sc2c1CCS(=O)(=O)C2	inconclusive: 89.1 µM [inhibitor, partial curve]

SMILES	Potency
Cc1cc(N2CCCCC2)nc2ccc(NC(=O)/C=C/c3ccccc3OC(C)C)cc12	inactive
CCOc1ccc(Nc2nc(Cc3nnc(SCC(=O)NC4CCCCC4)n3C)cs2)cc1	active: 56.2 µM
N#C/C(=C(/O)CN1CCOCC1)c1nc(-c2ccccc2)cs1	inconclusive: 89.1 µM [inhibitor, single point]
CC(O)c1cccc(N=Cc2ccc3ccccc3c2O)c1 (configuration not stated)	inconclusive: 31.6 µM [inhibitor, partial curve]
N#C/C(=C/C1=C(N2CCOCC2)C(=C/c2ccccc2)/CC1)C(=O)Nc1ccccc1F	active: 10 µM
CCOc1cccc(CC(=O)N2CCc3c([nH]c4ccccc34)C2c2ccc(F)cc2)c1OCC (configuration not stated)	inconclusive: 35.5 µM [inhibitor, partial curve]
O=C(c1cc(-c2ccccc2)n[nH]1)N1CCc2c([nH]c3ccccc23)C1c1ccccn1 (configuration not stated)	inconclusive: 35.5 µM [inhibitor, single point]
CCc1ccc2oc(-c3cccc(NC(=O)c4ccc(N5CCC(C)CC5)c([N+](=O)[O-])c4)c3)nc2c1	inactive
O=C(CC1Sc2ccccc2NC1=O)NNc1cccc(Cl)c1Cl (configuration not stated)	inactive
CCCn1c(C(C)Nc2nc(-c3ccc(C)cc3)cs2)nc2cc(Cl)c(Cl)cc21 (configuration not stated)	inconclusive: 56.2 µM [inhibitor, partial curve, poor fit]
COc1cccc(-c2nc(CS(=O)(=O)CC(=O)NC3CCC(C)CC3)c(C)o2)c1 (configuration not stated)	inconclusive: 12.6 µM [inhibitor, full curve, poor fit]
CCOc1ccc2c(c1)C(c1ccc(C)o1)=NNC(c1ccncc1)=N2	inconclusive: 56.2 µM [inhibitor, partial curve]
CN(C)c1cc(O)c(C(=S)Nc2ccccc2)c(N(C)C)c1	inconclusive: 17.8 µM [inhibitor, partial curve]
C[n+]1ccc(/C=C/c2ccccc2O)c2ccccc21	inconclusive: 39.8 µM [inhibitor, single point]
COCCCn1c(=S)[nH]c2ncccc2c1=O	inconclusive: 3.55 µM [inhibitor, full curve]
COc1cc2c(cc1OC)C(c1ccc(C)cc1)NC(=O)C2 (configuration not stated)	inactive
CCCCCC/C=N/Nc1nnc(Cc2ccccc2)c(=O)[nH]1	inconclusive: 39.8 µM [inhibitor, partial curve, poor fit]
COc1cccc(-n2c(=O)c3c(C)c(C(=O)N(C)C)sc3n(CC(=O)NCCc3ccc(OC)c(OC)c3)c2=O)c1	inactive and active: 79.4 µM
CO/N=C(\C(=O)N[C@@H]1C(=O)N2C(C(=O)O)=C(COC(C)=O)CS[C@H]12)c1csc(N)n1 (stereo in doubt)	active: 79.4 µM and active: 56.2 µM
O=C1c2ccccc2C2=Nc3ccccc3SC(c3ccc(Cl)cc3)C12 (configuration not stated)	inconclusive: 44.7 µM [inhibitor, single point]
CCc1ccc(NC(=O)C2CCN(C(=O)N3CC(CC)Oc4ccccc43)CC2)cc1 (configuration not stated)	inconclusive: 50.1 µM [inhibitor, partial curve]
N#Cc1ccccc1S(=O)(=O)N1CCN(c2nc(-c3cccs3)nc3ccccc23)CC1	inconclusive: 89.1 µM [inhibitor, partial curve]
Cc1c(N2C(=O)/C(=C/c3ccc(N(C)C)cc3)N(C)C2=S)c(=O)n(-c2ccccc2)n1C	inconclusive: 50.1 µM [inhibitor, partial curve]
COc1ccc(Cc2nnc(NC(=O)c3cccc([N+](=O)[O-])c3)s2)cc1	inactive

SMILES	Potency
CCOc1ccc(OCC)c(NC(=O)C2CCN(S(=O)(=O)c3ccc(Br)s3)CC2)c1	inactive
COc1c(C)cccc1C(=O)NC(=S)Nc1ccccc1N1CCCC1	active: 50.1 µM
O=C(Nc1ccc(F)cc1)[C@H](CSCc1ccccc1)N1Cc2ccccc2C1=O	inconclusive: 3.98 µM [inhibitor, single point]
O=C(OCC(=O)c1c[nH]c2ccccc12)c1ccc([N+](=O)[O-])s1	inconclusive: 28.2 µM [inhibitor, partial curve]
CCOc1ccc(CNc2ccc3c(c2)ncn3C)cc1	inconclusive: 79.4 µM [inhibitor, partial curve]
CCc1cccc(CC)c1-n1c(SCC(=O)N2CCc3ccccc3C2)nnc1-c1cccnc1	inconclusive: 70.8 µM [inhibitor, single point]
CCOC(=O)CSc1nc(N)c(C#N)c(-c2ccc(OCC)cc2)c1C#N	inactive
CC(C)CN1CCc2nc(N3CCN(c4ncccn4)CC3)ncc2C1	inconclusive: 89.1 µM [inhibitor, single point]
CC1CCCCN1CC(=O)Nc1ccc2c(c1)OC(F)(F)O2 (configuration not stated)	inactive
COc1ccc(-c2oc3ncnc(NCCCN(C)C)c3c2-c2ccc(OC)cc2)cc1	inconclusive: 31.6 µM [inhibitor, partial curve]
CC(C)C(C)NC(=O)COC(=O)c1cccc(C(=O)OCC(=O)NC(C)C(C)C)n1 (configuration not stated)	inconclusive: 31.6 µM [inhibitor, single point]
Cc1ccc(S(=O)(=O)N2CCN(Cc3cccc(F)c3)CC2)cc1	active: 3.16 µM
CC1CCCC(C)N1/N=C/c1cccc([N+](=O)[O-])c1 (configuration not stated)	inconclusive: 50.1 µM [inhibitor, partial curve]
CCc1nn(CC(=O)N2CCCCC2)c(=O)c2cc3sccc3n12	inactive
O=C(N/N=C/c1cc([N+](=O)[O-])ccc1O)c1cc(-c2ccccc2)nc2ccccc12	inconclusive: 70.8 µM [inhibitor, single point]
COc1cc(Br)c(/C=C(\C#N)c2nc3ccccc3[nH]2)cc1OC	inconclusive: 79.4 µM [inhibitor, single point]
CC(C)(/C=N/O)/[N+]([O-])=C/c1ccccc1C(F)(F)F	inconclusive: 28.2 µM [inhibitor, full curve]
O=c1c(-c2n[nH]c(=S)n2-c2ccccc2)cccn1Cc1cccc(Cl)c1	active: 28.2 µM
Cc1ccc(-c2n[nH]c(=S)n2/N=C/c2cc3c(cc2[N+](=O)[O-])OCO3)cc1	active: 10 µM
CCOCc1nnc(NC(=O)CSCc2ccccc2)s1	inconclusive: 100 µM [inhibitor, single point]
Cc1ccc(-c2nc3cc(C(C)C)ccc3o2)cc1NC(=O)c1cccs1	inactive
COC1=CC(=O)C(O)=C(CCCCCCC/C=C/CCCCCCCC2=C(O)C(=O)C=C(OC)C2=O)C1=O	active: 44.7 µM
Clc1ccccc1N1CCN(Cc2ccc(Br)o2)CC1	active: 25.1 µM
Cc1cccc2cc(CN(CC3CCCO3)C(=O)c3cccnc3)c3nnnn3c12 (configuration not stated)	inactive
